The list shows a part of the results. At the low end of the ranking the order means little.

The target of the experiment is SIX1-Q177R homeodomain (UniProt Q15475). The experiment in a line: universal protein binding microarray. The settings on record: Universal all-10-mer PBM (8x60K, AMADID 030236), 300 nM GST-tagged protein, Alexa Fluor 488 anti-GST; buffer, salt, pH and temperature not stated; high values mean tight binding; most listed sequences are background and not binding sites; double strand, one strand shown.
In the case of AATTACTA, the binding signal was -0.0221 E-score.

On to AACAACAT, for which the binding signal is -0.316 E-score. Next, CGCCCTCA: -0.00666 E-score.

Regarding ATGTCTGG, the binding signal is -0.106 E-score. Next, AGATCATA: 0.0411 E-score; ATTTAAGA: -0.142 E-score; GGGCCTCA: -0.205 E-score. Take ACGCGCAT: the binding signal was found to be 0.0823 E-score. Consider CGTACGCC, for which the binding signal was 0.145 E-score.

In the case of GTCAACGA, the binding signal is -0.0001 E-score.

In the case of ATAAGAAT, the binding signal was -0.26 E-score. The same measure for ACGTTCGC: -0.156 E-score; for CTGTTTGC: -0.169 E-score; for GAGAGGGC: -0.191 E-score. Consider GATTGAGA, for which the binding signal is -0.103 E-score.

For the sequence GAGCGCCC, the binding signal is -0.135 E-score.

Regarding ATTAGGCA, the binding signal is -0.101 E-score. The same measure for CTATTTTA: -0.119 E-score; for CTGTAAGC: -0.218 E-score. Next, CGCAGACG: -0.0609 E-score; AAAGCCGA: 0.00121 E-score; CTCTTTGC: -0.109 E-score.

On to AGTTACCG, for which the binding signal is -0.00915 E-score. The same measure for CGACTCTA: 0.0362 E-score.

As for ATTTTATG, the binding signal is -0.186 E-score. The same measure for GGGATTAC: 0.0966 E-score; for CGGTATGA: -0.0385 E-score; for CATCATCC: -0.122 E-score. In the case of TACTAGGA, the binding signal was found to be 0.00636 E-score. Turning to ACGGGGAA, the binding signal worked out at 0.027 E-score.

Take AAATCATC: the binding signal is -0.288 E-score. Take CTTTCAAC: the binding signal worked out at 0.0495 E-score. Next, GCTAGTAA: -0.173 E-score; TATACACA: 0.169 E-score. The same measure for AGCGTGAG: 0.04 E-score; for GCTCTGCC: -0.358 E-score; for TAGTTCAA: -0.221 E-score. Next, TCGGATAA: 0.194 E-score; TATCTGAA: -0.129 E-score; TGTTACAA: 0.0708 E-score. As for ACCGATCC, the binding signal came out at 0.0829 E-score.

ACTTCTGC: the binding signal was -0.0736 E-score. The same measure for CTTGCCTC: 0.141 E-score; for AAATGAAT: -0.149 E-score; for GCGTCATA: 0.0536 E-score. Next, AGGCCTAA: -0.0975 E-score. As to AAGTGCCC, the binding signal was -0.118 E-score. On to ACGGTGGA, for which the binding signal turned out to be 0.111 E-score. For CACTGTGC, the binding signal amounted to 0.204 E-score.

Regarding CAGCTAGG, the binding signal is -0.0209 E-score.

For GTTCTTTA, the binding signal was -0.0924 E-score. Turning to TGAATGCA, the binding signal was -0.106 E-score.

Take AACCGGTT: the binding signal is -0.0456 E-score. The same measure for GCCTGCTA: -0.118 E-score; for GTCATTAA: 0.0473 E-score. Next, ATTGGGTC: -0.00874 E-score; AAACTAAT: -0.222 E-score; AGGATACA: 0.159 E-score.

Consider AGAATGTG, for which the binding signal is -0.254 E-score. The same measure for ACGTAAAT: -0.068 E-score; for CGCCTACA: 0.0684 E-score; for AACTTAAA: -0.212 E-score. As for TCGTCTCA, the binding signal is -0.162 E-score. Next, CGAGGACG: 0.0644 E-score; CGTCTGAG: -0.0152 E-score.

As for GCATCACA, the binding signal is -0.00293 E-score.

Turning to GCTTATGA, the binding signal was 0.0776 E-score. As to GGCGCGGA, the binding signal was 0.0656 E-score. For TAGTATAA, the binding signal came to 0.0661 E-score. For GCGTGAAA, the binding signal was 0.012 E-score. With AGCAAGTA, the binding signal is -0.164 E-score. With CTATTGCC, the binding signal was -0.126 E-score. Next, GTACAGGA: -0.0674 E-score; AAAATCAC: -0.121 E-score; CCATCTTA: -0.0861 E-score. Regarding CACTGAAC, the binding signal was 0.0968 E-score. The same measure for CACGATAA: 0.054 E-score; for GAAAAGGC: -0.147 E-score. AACCGCTC: the binding signal is -0.232 E-score. Next, TACACGCA: 0.406 E-score; CCGGGAGC: -0.02 E-score. Next, CAGTCGGC: -0.108 E-score. Next, AGCGCCAC: -0.179 E-score; GCGTTGAC: -0.0852 E-score; AAGGTCGA: -0.0495 E-score. CGATTATC: the binding signal was found to be 0.0712 E-score. For the sequence TAATCATA, the binding signal is -0.115 E-score. Next, TGTTGCAA: 0.0416 E-score; TCTCGCAA: -0.00392 E-score; CCGCTTCG: 0.00142 E-score. In the case of CCCAGCTC, the binding signal is 0.0946 E-score.

For the sequence AATTCTGT, the binding signal is -0.299 E-score. On to CGTGTCAG, for which the binding signal is 0.441 E-score.

As to CCGGCATA, the binding signal turned out to be 0.0203 E-score. Next, AGGCTACT: -0.193 E-score. Regarding ATTCTCGG, the binding signal is -0.136 E-score. Regarding CGCAAGTA, the binding signal is -0.0605 E-score. The same measure for AACGACGA: -0.176 E-score; for ATACACTA: 0.364 E-score. The same measure for ATACGCGG: -0.0353 E-score. GTGGGAAC: the binding signal was determined as 0.0129 E-score. For the sequence GGCGGGTA, the binding signal was found to be 0.214 E-score. In the case of CGGGCCGC, the binding signal was -0.00792 E-score. The same measure for ATGGGGGA: 0.0776 E-score.

Take GATTGGCC: the binding signal was -0.185 E-score. With CATTCTTA, the binding signal was -0.19 E-score. The same measure for AGGGGACT: -0.0962 E-score; for GCACTCAA: 0.062 E-score.

Regarding CTTTTCTA, the binding signal is -0.252 E-score. Next, ATCTCCTA: -0.114 E-score; AACATCGG: -0.138 E-score. Consider GCCAAGCC, for which the binding signal was 0.00385 E-score. The same measure for CGTGCACA: 0.0927 E-score; for ACCAGTTC: -0.0186 E-score; for AGGTCTGA: -0.245 E-score. For the sequence AGGTGTAC, the binding signal turned out to be 0.47 E-score.

For the sequence ACATGTTC, the binding signal is -0.138 E-score. Turning to CACCACAG, the binding signal worked out at 0.322 E-score. The same measure for TCTTTTAA: -0.233 E-score; for AAAACTCT: -0.121 E-score. The same measure for CCGGGTGA: 0.117 E-score. Next, GTCTGAAA: -0.107 E-score; GGCACCAC: 0.215 E-score; ACGACGGC: 0.00715 E-score. For the sequence ACCTCAGT, the binding signal came out at 0.0287 E-score. For the sequence ACGGATTA, the binding signal came to 0.0359 E-score. Next, CATTCGAC: 0.0651 E-score; GCAATAAA: -0.183 E-score; AATCCAAT: -0.204 E-score. Next, AGCGGGAC: -0.261 E-score; AAGGCGAT: -0.18 E-score.

Consider ATGGCAGG, for which the binding signal was -0.174 E-score. As to CTAGTGAC, the binding signal amounted to 0.00443 E-score. Turning to AGACGGCC, the binding signal was -0.14 E-score.

GACCGTAC: the binding signal is -0.0799 E-score. The same measure for ATGGCGAA: -0.277 E-score; for ATAGAATC: -0.0937 E-score; for TATTTAGA: 0.0442 E-score.

On to CTGTCAAA, for which the binding signal is -0.194 E-score.

In the case of AAACCCGG, the binding signal is 0.0514 E-score. Next, ACCACATC: 0.0577 E-score; ACTCTCCT: 0.0415 E-score. Next, CGCCCTAG: -0.0371 E-score; ACCTGACT: 0.0579 E-score. The same measure for ATCTTTTG: -0.338 E-score; for CCTAGTCA: 0.0973 E-score; for AAAGACCC: 0.102 E-score. GATGCGCC: the binding signal is -0.218 E-score.

For ATTCGTCA, the binding signal is -0.131 E-score. As to CCACTACG, the binding signal was -0.0483 E-score. The same measure for GCACCCTA: 0.226 E-score; for GAGATGAC: -0.165 E-score; for AGAGAATA: -0.199 E-score. The same measure for CGACCTAC: 0.0148 E-score.

On to ACACGTCT, for which the binding signal stood at 0.344 E-score. Next, ATGGACAA: -0.034 E-score; GAACTAGA: -0.167 E-score. Regarding CGACTGCA, the binding signal was -0.0638 E-score.

For CTCCTTGA, the binding signal came out at 0.0951 E-score. Consider GTCTCGTA, for which the binding signal is -0.0192 E-score.

In the case of AAATGCAT, the binding signal is -0.143 E-score. With GATATTTA, the binding signal was 0.0247 E-score. As for CACAAATA, the binding signal was -0.0659 E-score.

ACGTCATC: the binding signal is -0.104 E-score. With AGTAAAAA, the binding signal was -0.0492 E-score. Next, CGTGGTAC: -0.138 E-score. The same measure for GCACATCC: -0.292 E-score. For ATGTCATG, the binding signal is -0.104 E-score. The same measure for ATGTAGAG: -0.02 E-score; for CCCAGCTA: -0.0464 E-score. AAGGATAG: the binding signal is 0.025 E-score. The same measure for CCGAGGGC: -0.143 E-score; for GACGGTTA: -0.0383 E-score. The same measure for CTATCCTC: -0.107 E-score; for AGCCGGGG: 0.0624 E-score. As to AGGAGCAA, the binding signal is -0.254 E-score.

With AGTCGAGG, the binding signal came to 0.07 E-score.

As to AGCAGAAC, the binding signal is -0.187 E-score. Next, CAGTATCC: 0.162 E-score; ATAACACA: 0.24 E-score. Regarding AGCAAGCT, the binding signal is -0.135 E-score. The same measure for CGTTGGCC: -0.102 E-score; for CCCGTTAA: -0.0124 E-score. For GACGCTAA, the binding signal is -0.108 E-score. As to GAGAGATA, the binding signal was -0.00422 E-score. In the case of GAACAGCC, the binding signal was -0.249 E-score. Turning to AAGTAGAA, the binding signal is -0.122 E-score. Consider CGCTCATA, for which the binding signal was -0.267 E-score.

As to AGCCTGTC, the binding signal is -0.146 E-score. Next, ACCATCAG: 0.181 E-score; ATAATGAA: -0.0498 E-score.

Consider CCAGCGTC, for which the binding signal worked out at 0.0885 E-score. For the sequence AAACCTGC, the binding signal was -0.109 E-score. Next, ACACCTTG: 0.44 E-score; CTTTTCCC: -0.279 E-score. Next, AAATAATT: 0.0072 E-score. Next, CGAGACGC: 0.091 E-score. Turning to CCGCTCTA, the binding signal is -0.0348 E-score. As to ATAGGTGG, the binding signal was -0.0294 E-score. For CAAGTTGA, the binding signal turned out to be 0.0197 E-score. Next, CCTCCGAA: 0.0355 E-score; ATCGGGTG: 0.335 E-score. Next, TGTATCAA: 0.158 E-score; CAGCACGG: 0.0171 E-score; AAAAGTAA: -0.158 E-score. The same measure for ACAAATTA: -0.125 E-score; for AATAGCGT: 0.0621 E-score. With AGGCTAAC, the binding signal turned out to be 0.0702 E-score.

Consider AGGTCCCG, for which the binding signal is -0.131 E-score. For CATTGTAC, the binding signal is 0.00541 E-score. The same measure for AGTTTTCC: 0.0403 E-score; for CGACACCA: 0.488 E-score; for ACGACTTC: -0.0524 E-score.

Consider AGTGCATA, for which the binding signal amounted to 0.0138 E-score. Regarding CTCTGGTC, the binding signal was determined as 0.062 E-score. On to CAATGTAA, for which the binding signal was -0.16 E-score. Next, CATTTTCC: -0.248 E-score. Next, CATTCCCC: -0.0211 E-score; CGAGGTCA: 0.0313 E-score.

The values are drawn from publication PMC10668032.
